B1: 65 (protein, listed as Ailuropoda melanoleuca)
chain: MAKIDVHSHILPKEWPDLKKRFGYGGWVQLQHHNKGEAKMMKDGKVFRVVQENCWDPEVRIREMDQTGVTVQALSTVPVMFSYWAKPQDTLDLCQLLNNDLAATVANHPRRFVGLGTLPMQAPELAVKEMERCVKELGFPGVQIGSHINEWDLNAKELFPVYAVAEKLNCSLFVHPWDMQMDGRMAKYWLPWLVGMPAETTTAICSMIMGGVFEKFPKLKVCFAHGGGAFPFTVGRISHGFNMRPDLCAQDNPINPKKYLGSFYTDSLVHDPLALKLLTDVIGKDKVILGTDYPFPLGELEPGKLIESMEEFEEETKDKLKAGNALAFLGLERKQFE
B2: 66 (protein, listed as Amphimedon queenslandica)
chain: MASGIKVDIHNHILPERWPDLKERYGYGGWIQLHHHCQGKARMLKDGQLFRVVDENCWSPEARIKDMDNTGVTVQALSTVPVMFSYWAKPEDTLDLCKILNNDLAQTVAKFPKRFVGLGTLPMQAPELAVQELKRCIKELGFPGVQIGSHVNEWNLDATELQCVFAAAEELNAAVFVHPWDMETGGRMSKYWLPWLVGMPAETATAICSVLFGGVLERHPNLKICFAHGGGSFPYTIGRIEHGFNVRPDLCATENSVNPRSYIGKVYTDSLVHDQKALKFLVDIIGEDRVVLGSDYPFPLGEHFPGKLIESIEEWDTSLKDKLLSKNAFEFLGLDPSQYET
B3: 67 (protein, listed as Amblyomma maculatum)
chain: MASSFSAAANLKIDLHAHVTPDRWPNLRERYGYGGWLDIKHESDKTAVMSYDDGRFFRRIESNCWNIDERIADMDRTGVTVQALSTTPVLFSYWAKPEDALDFSRLQNDFVASLVNRRPDRFVGMCTVPMQSPQLAAEELKRCVSQLGFRAVIVGSHINEWTLADRALDPFYRTVKELGVSIFVHPWDMPPSTRYNKYWLQWLVGMPAETTAAICEVIFGGLLERFPRLKLCFAHGAGSFPYTVGRIQHGFDVRPDLCAVDNKIPPKGYLGEIYADSLVHNRGSLRLLLDTLGEDRVMLGSDYPYPLGEIDRPGRLIETSGLQNSVKEKLLWKKCCELPRN

Assay: 14C assay: 14CO2 capture from [14C]-carboxyl-labeled dicamba with IPTG-induced recombinant E. coli cells
Conditions: for Dicamba Decarboxylase Activity: IPTG-induced recombinant E. coli cells, 14CO2 from [14C]-carboxyl-labeled dicamba; for Enzymatic Detection level: dicamba decarboxylation activity

Row | Molecule | Dicamba Decarboxylase Activity | Enzymatic Detection level
1 | B1 | Low | Low
2 | B2 | Low | Low
3 | B3 | Low | Low

Reference: patent US20140289906A1, “Compositions Having Dicamba Decarboxylase Activity and Methods of Use” (priority 2013, published 2014)
